Data as given in the supplement of paper PMC10369915.
The list shows a part of the results. No stated cut-off is given here; in the data, active = 3.2 or more and inactive = the rest. Most of these values are background signal.

B1: LCK_Y25 (peptide)
chain: CENCHYPIVPL
B2: LDHB_Y173 (peptide)
chain: SARFRYLMAEK
B3: LDLR_Y465_V468I (peptide)
chain: HGVSSYDTIIS
B4: LDLR_Y847 (peptide)
chain: QDGYSYPSRQM
B5: LDLR_Y847_P848L_YF (peptide)
chain: QDGFSYLSRQM
B6: LEF1_Y114 (peptide)
chain: SSYSGYIMMPN
B7: LEMD2_Y122 (peptide)
chain: SRGLAYPARPA
B8: LGR4_Y848_D844G_YF (peptide)
chain: FGCGMYSHLQG
B9: LGR5_Y387 (peptide)
chain: RHNEIYEIKVD
B10: LGR5_Y387_H383R (peptide)
chain: RRNEIYEIKVD
B11: LIG3_Y767_Y768H (peptide)
chain: KVNKIYHPDFI
B12: LIG3_Y768_Y768H (peptide)
chain: VNKIYHPDFIV
B13: LILRB4_Y412_Q414R (peptide)
chain: PQDVTYARLHS
B14: LITAF_Y23_Y23H (peptide)
chain: SAPPSHEETVA
B15: LLGL2_Y40_R45H (peptide)
chain: PSALGYSPSLH
B16: LMNA_Y211_I210V (peptide)
chain: FQKNVYSEELR
B17: LMNA_Y45_A43T (peptide)
chain: DRLTVYIDRVR
B18: LMNA_Y481 (peptide)
chain: DPLLTYRFPPK
B19: LMNA_Y481_R482L (peptide)
chain: DPLLTYLFPPK
B20: LMNA_Y481_R482Q (peptide)
chain: DPLLTYQFPPK
B21: LMNA_Y481_Y481H (peptide)
chain: DPLLTHRFPPK
B22: LMNA_Y646 (peptide)
chain: LVTRSYLLGNS
B23: LPCAT3_Y348_W344C (peptide)
chain: ACVARYIFKRL
B24: LRP2_Y2010 (peptide)
chain: RGLQVYHRRNA
B25: LRP5_Y1528_R1529S (peptide)
chain: ATARPYSPYII
B26: LRP5_Y1531 (peptide)
chain: RPYRPYIIRGM
B27: LRRK2_Y1402_R1398H (peptide)
chain: GHEEFYSTHPH
B28: LRRK2_Y1718_R1723P (peptide)
chain: LEISPYMLSGP
B29: LRRK2_Y2023_YF (peptide)
chain: FGIAQYCCRMG
B30: LRRK2_Y707_M712V (peptide)
chain: VAMDDYLKNVV
B31: LTK_Y672_R673Q_YF (peptide)
chain: MARDIYQASFF
B32: LTK_Y676 (peptide)
chain: IYRASYYRRGD
B33: LTK_Y677_R673Q (peptide)
chain: YQASYYRRGDR
B34: LUZP1_Y1036 (peptide)
chain: CTLSVYRQLHN
B35: LUZP1_Y1036_S1034N (peptide)
chain: CTLNVYRQLHN
B36: LY75_Y888_D884A_YF (peptide)
chain: DAHFTYSRFPW
B37: LZTR1_Y119 (peptide)
chain: PPAPRYHHSAV

Columns and labels:
Test in all cases: enrichment score (SH2-bound / input frequency) (ratio); bacterial display of known human phosphotyrosine sites (pTyr-Var adds point mutants) read by sequencing; higher = stronger binding; tyrosines were phosphorylated by kinases first
Settings in all cases: peptide library: pTyr-Var
[1] = target: SHP2 C-SH2 domain E139D
[2] = target: SHP2 C-SH2 domain wild-type
[3] = target: SHP2 N-SH2 domain L43F
[4] = target: SHP2 N-SH2 domain T42A
[5] = target: SHP2 N-SH2 domain T52S
[6] = target: SHP2 N-SH2 domain wild-type
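Further: displayed peptides selected on beads carrying the immobilized SH2 domain, with library peptides lacking any tyrosine serving as negative controls.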

Binder	enrichment score [1]	enrichment score [2]	enrichment score [3]	enrichment score [4]	enrichment score [5]	enrichment score [6]
B1	inactive: 0.892	inactive: 0.818	inactive: 0.83	inactive: 0.685	inactive: 0.807	inactive: 0.901
B2	inactive: 0.968	inactive: 0.455	inactive: 0.645	inactive: 0.621	inactive: 0.451	inactive: 0.767
B3	inactive: 0.618	inactive: 0.652	inactive: 0.678	inactive: 0.611	inactive: 0.569	inactive: 0.548
B4	inactive: 0.584	inactive: 0.629	inactive: 0.569	inactive: 0.664	inactive: 0.592	inactive: 0.568
B5	inactive: 0.646	inactive: 0.642	inactive: 0.682	inactive: 0.736	inactive: 0.702	inactive: 0.695
B6	inactive: 0.76	inactive: 0.751	inactive: 0.698	inactive: 0.932	inactive: 0.736	inactive: 0.736
B7	inactive: 0.793	inactive: 0.649	inactive: 0.576	inactive: 0.554	inactive: 0.7	inactive: 0.693
B8	inactive: 1.33	inactive: 1.72	inactive: 1.1	inactive: 1.07	inactive: 1.36	inactive: 1.99
B9	inactive: 0.853	inactive: 0.861	inactive: 0.951	inactive: 0.892	inactive: 0.953	inactive: 0.741
B10	inactive: 0.685	inactive: 0.637	inactive: 0.767	inactive: 0.619	inactive: 0.858	inactive: 0.793
B11	inactive: 0.716	inactive: 0.838	inactive: 0.812	inactive: 0.618	inactive: 0.89	inactive: 0.639
B12	inactive: 1.12	inactive: 0.673	inactive: 0.764	inactive: 1.1	inactive: 1.01	inactive: 0.713
B13	inactive: 0.881	inactive: 2.62	inactive: 1.21	active: 4.36	inactive: 0.878	inactive: 0.921
B14	inactive: 0.367	inactive: 0.581	inactive: 0.394	inactive: 0.459	inactive: 0.461	inactive: 0.653
B15	inactive: 0.886	inactive: 0.806	inactive: 0.884	inactive: 0.517	inactive: 0.956	inactive: 1.02
B16	inactive: 0.597	inactive: 0.562	inactive: 0.719	inactive: 0.669	inactive: 0.561	inactive: 0.747
B17	inactive: 0.582	inactive: 0.685	inactive: 0.532	inactive: 0.571	inactive: 0.625	inactive: 0.771
B18	inactive: 1.14	inactive: 0.857	inactive: 1.03	inactive: 0.797	inactive: 0.965	inactive: 0.693
B19	inactive: 1.51	inactive: 1.43	inactive: 1.31	inactive: 1.35	inactive: 1.1	inactive: 1.24

Binder	enrichment score [1]	enrichment score [2]	enrichment score [3]	enrichment score [4]	enrichment score [5]	enrichment score [6]
B20	inactive: 0.742	inactive: 0.592	inactive: 0.997	inactive: 0.636	inactive: 0.777	inactive: 0.814
B21	inactive: 0.698	inactive: 0.798	inactive: 0.694	inactive: 0.63	inactive: 0.598	inactive: 0.665
B22	inactive: 0.696	inactive: 0.765	inactive: 0.714	inactive: 0.835	inactive: 0.838	inactive: 0.695
B23	inactive: 0.828	inactive: 0.791	inactive: 0.902	inactive: 0.884	inactive: 0.901	inactive: 0.676
B24	inactive: 0.352	inactive: 0.295	inactive: 0.239	inactive: 0.272	inactive: 0.158	inactive: 0.245
B25	inactive: 0.943	inactive: 0.825	inactive: 0.651	inactive: 0.597	inactive: 1.03	inactive: 0.735
B26	inactive: 0.373	inactive: 0.339	inactive: 0.224	inactive: 0.215	inactive: 0.304	inactive: 0.186
B27	inactive: 0.806	inactive: 0.693	inactive: 0.745	inactive: 0.654	inactive: 0.99	inactive: 0.81
B28	inactive: 0.948	inactive: 0.747	inactive: 1.87	inactive: 0.817	inactive: 1.81	inactive: 1.3
B29	inactive: 1.66	inactive: 1.41	inactive: 1.53	inactive: 1.38	inactive: 1.64	inactive: 1.68
B30	inactive: 0.888	inactive: 0.874	inactive: 0.687	inactive: 0.714	inactive: 0.951	inactive: 1.12
B31	inactive: 0.954	inactive: 0.846	inactive: 0.997	inactive: 0.931	inactive: 0.988	inactive: 0.998
B32	inactive: 0.236	inactive: 0.321	inactive: 0.306	inactive: 0.199	inactive: 0.282	inactive: 0.244
B33	inactive: 0.177	inactive: 0.222	inactive: 0.209	inactive: 0.222	inactive: 0.234	inactive: 0.283
B34	inactive: 0.795	inactive: 0.895	inactive: 0.8	inactive: 0.746	inactive: 0.752	inactive: 1.07
B35	inactive: 0.874	inactive: 1.06	inactive: 0.749	inactive: 0.678	inactive: 0.659	inactive: 1.08
B36	inactive: 0.997	inactive: 0.734	inactive: 0.866	inactive: 0.85	inactive: 0.812	inactive: 1.08
B37	inactive: 1.84	inactive: 2.05	inactive: 2	inactive: 1.52	inactive: 1.71	inactive: 2.06
